# From the supplement of paper PMC8728848
# The list shows a part of the results.
# B1: Als3-41 (Candida albicans) (protein)
# chain: KTITGVFNSFNSLTWSNAATYNYKGPGTPTWNAVLGWSLDGTSASPGDTFTLNMPCVFKFTTSQTSVDLTAHGVKYATCQFQAGEEFMTFSTLTCTVSNTLTPSIKALGTVTLPLAFNVGGTGSSVDLEDSKCFTAGTNTVTFNDGGKKISINVDFERSNVDPKGYLTDSRVIPSLNKVSTLFVAPQCANGYTSGTMGFANTYGDVQIDCSNIHVGITKGLNDWNYPVSSESFSYTKTCSSNGIFITYKNVPAGYRPFVDAYISATDVNSYTLSYANEYTCAGGYWQRAPFTLRWTGYRNSDAGSNGIVIVATTRTVTDSTTAVTTLPFDPNRDKTKTIEILKPIPTTTITTSYVGVTTSYLTKTAPIGETATVIVD
# Columns and labels:
# Assay in all cases: glycan array binding signal (z-score within array); higher = stronger binding
# Details in all cases: glycan notation: IUPAC condensed, linker removed
# Fuc(a1-2)Gal = biological target: Fuc(a1-2)Gal
# Method in brief: (§1)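 The binding signal is a Z-score computed within each array and averaged over linkers. Arrays of the same protein sequence at different concentrations or buffers were also averaged together. Data originate from 3228 arrays in the Consortium for Functional Glycomics database, kept only where the protein sequence was available.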
# Fuc(a1-2)Gal(b1-3)GalNAc = biological target: Fuc(a1-2)Gal(b1-3)GalNAc
# Method in brief: as §1
# [1] = biological target: Fuc(a1-2)Gal(b1-3)GalNAc(a1-3)[Fuc(a1-2)]Gal(b1-4)Glc
# Method in brief: as §1
# [2] = biological target: Fuc(a1-2)Gal(b1-3)GalNAc(a1-3)[Fuc(a1-2)]Gal(b1-4)GlcNAc
# Method in brief: as §1
# [3] = biological target: Fuc(a1-2)Gal(b1-3)GalNAc(b1-3)Gal
# Method in brief: as §1
# [4] = biological target: Fuc(a1-2)Gal(b1-3)GalNAc(b1-3)Gal(a1-4)Gal(b1-4)Glc
# Method in brief: as §1
# [5] = biological target: Fuc(a1-2)Gal(b1-3)GalNAc(b1-4)[Neu5Ac(a2-3)]Gal(b1-4)Glc
# Method in brief: as §1
# Fuc(a1-2)Gal(b1-3)GlcNAc = biological target: Fuc(a1-2)Gal(b1-3)GlcNAc
# Method in brief: as §1
# [6] = biological target: Fuc(a1-2)Gal(b1-3)GlcNAc(b1-2)Man(a1-3)[Fuc(a1-2)Gal(b1-3)GlcNAc(b1-2)Man(a1-6)]Man(b1-4)GlcNAc(b1-4)GlcNAc
# Method in brief: as §1
# [7] = biological target: Fuc(a1-2)Gal(b1-3)GlcNAc(b1-2)Man(a1-3)[Fuc(a1-2)Gal(b1-3)GlcNAc(b1-2)Man(a1-6)]Man(b1-4)GlcNAc(b1-4)[Fuc(a1-6)]GlcNAc
# Method in brief: as §1
# [8] = biological target: Fuc(a1-2)Gal(b1-3)GlcNAc(b1-3)Gal(b1-4)Glc
# Method in brief: as §1
# [9] = biological target: Fuc(a1-2)Gal(b1-3)GlcNAc(b1-3)GalNAc
# Method in brief: as §1
# [10] = biological target: Fuc(a1-2)Gal(b1-3)GlcNAc(b1-3)[Fuc(a1-2)Gal(b1-3)GlcNAc(b1-6)]GalNAc
# Method in brief: as §1
# [11] = biological target: Fuc(a1-2)Gal(b1-3)GlcNAc(b1-3)[Gal(b1-4)GlcNAc(b1-6)]Gal(b1-4)Glc
# Method in brief: as §1
# [12] = biological target: Fuc(a1-2)Gal(b1-3)GlcNAc(b1-3)[Neu5Ac(a2-6)Gal(b1-4)GlcNAc(b1-6)]Gal(b1-4)Glc
# Method in brief: as §1
# [13] = biological target: Fuc(a1-2)Gal(b1-3)GlcNAc6S
# Method in brief: as §1
# [14] = biological target: Fuc(a1-2)Gal(b1-3)[Fuc(a1-4)]GlcNAc
# Method in brief: as §1
# [15] = biological target: Fuc(a1-2)Gal(b1-3)[Fuc(a1-4)]GlcNAc(b1-2)Man(a1-3)[Fuc(a1-2)Gal(b1-3)[Fuc(a1-4)]GlcNAc(b1-2)Man(a1-3)]Man(b1-4)GlcNAc(b1-4)GlcNAc
# Method in brief: as §1
# [16] = biological target: Fuc(a1-2)Gal(b1-3)[Fuc(a1-4)]GlcNAc(b1-2)Man(a1-3)[Fuc(a1-2)Gal(b1-3)[Fuc(a1-4)]GlcNAc(b1-2)Man(a1-6)]Man(b1-4)GlcNAc(b1-4)[Fuc(a1-6)]GlcNAc(b1-4)[Fuc(a1-6)]GlcNAc
# Method in brief: as §1
# [17] = biological target: Fuc(a1-2)Gal(b1-3)[Fuc(a1-4)]GlcNAc(b1-3)[Fuc(a1-3)[Gal(b1-4)]GlcNAc(b1-6)]Gal(b1-4)Glc
# Method in brief: as §1
# [18] = biological target: Fuc(a1-2)Gal(b1-3)[Fuc(a1-4)]GlcNAc(b1-3)[Gal(b1-4)GlcNAc(b1-6)]Gal(b1-4)Glc
# Method in brief: as §1
# [19] = biological target: Fuc(a1-2)Gal(b1-4)Fuc(a1-3)]GlcNAc(b1-2)Man(a1-3)[Fuc(a1-2)Gal(b1-4)[Fuc(a1-3)]GlcNAc(b1-2)Man(a1-6)]Man(b1-4)GlcNAc(b1-4)GlcNAc
# Method in brief: as §1
# Fuc(a1-2)Gal(b1-4)Glc = biological target: Fuc(a1-2)Gal(b1-4)Glc
# Method in brief: as §1
# Fuc(a1-2)Gal(b1-4)Glc6S = biological target: Fuc(a1-2)Gal(b1-4)Glc6S
# Method in brief: as §1
# Fuc(a1-2)Gal(b1-4)GlcNAc = biological target: Fuc(a1-2)Gal(b1-4)GlcNAc
# Method in brief: as §1
# [20] = biological target: Fuc(a1-2)Gal(b1-4)GlcNAc(b1-2)Man
# Method in brief: as §1
# [21] = biological target: Fuc(a1-2)Gal(b1-4)GlcNAc(b1-2)Man(a1-3)[Fuc(a1-2)Gal(b1-4)GlcNAc(b1-2)Man(a1-6)]Man(b1-4)GlcNAc(b1-4)GlcNAc
# Method in brief: as §1
# [22] = biological target: Fuc(a1-2)Gal(b1-4)GlcNAc(b1-2)Man(a1-3)[Fuc(a1-2)Gal(b1-4)GlcNAc(b1-2)Man(a1-6)]Man(b1-4)GlcNAc(b1-4)[Fuc(a1-6)]GlcNAc
# Method in brief: as §1
# [23] = biological target: Fuc(a1-2)Gal(b1-4)GlcNAc(b1-2)[Fuc(a1-2)Gal(b1-4)GlcNAc(b1-4)]Man(a1-3)[Fuc(a1-2)Gal(b1-4)GlcNAc(b1-2)Man(a1-6)]Man(b1-4)GlcNAc(b1-4)GlcNAc
# Method in brief: as §1
# [24] = biological target: Fuc(a1-2)Gal(b1-4)GlcNAc(b1-3)Gal(b1-4)GlcNAc
# Method in brief: as §1
# [25] = biological target: Fuc(a1-2)Gal(b1-4)GlcNAc(b1-3)Gal(b1-4)GlcNAc(b1-2)Man(a1-3)[Fuc(a1-2)Gal(b1-4)GlcNAc(b1-3)Gal(b1-4)GlcNAc(b1-2)Man(a1-6)]Man(b1-4)GlcNAc(b1-4)GlcNAc
# Method in brief: as §1
# [26] = biological target: Fuc(a1-2)Gal(b1-4)GlcNAc(b1-3)Gal(b1-4)GlcNAc(b1-3)Gal(b1-4)GlcNAc
# Method in brief: as §1
# [27] = biological target: Fuc(a1-2)Gal(b1-4)GlcNAc(b1-3)GalNAc
# Method in brief: as §1
# [28] = biological target: Fuc(a1-2)Gal(b1-4)GlcNAc(b1-3)[Fuc(a1-2)Gal(b1-4)GlcNAc(b1-6)]GalNAc
# Method in brief: as §1
# [29] = biological target: Fuc(a1-2)Gal(b1-4)GlcNAc(b1-3)[Fuc(a1-3)[Gal(b1-4)]GlcNAc(b1-6)]Gal(b1-4)Glc
# Method in brief: as §1
# [30] = biological target: Fuc(a1-2)Gal(b1-4)GlcNAc(b1-6)GalNAc
# Method in brief: as §1
# [31] = biological target: Fuc(a1-2)Gal(b1-4)GlcNAc6S
# Method in brief: as §1
binder,measurement,setting,value
B1,glycan array binding signal (z-score),Fuc(a1-2)Gal,0.406
same,glycan array binding signal (z-score),Fuc(a1-2)Gal(b1-3)GalNAc,-0.269
same,glycan array binding signal (z-score),[1],-0.067
same,glycan array binding signal (z-score),[2],-0.19
same,glycan array binding signal (z-score),[3],1.02
same,glycan array binding signal (z-score),[4],-0.203
same,glycan array binding signal (z-score),[5],-0.252
same,glycan array binding signal (z-score),Fuc(a1-2)Gal(b1-3)GlcNAc,-0.256
same,glycan array binding signal (z-score),[6],-0.316
same,glycan array binding signal (z-score),[7],-0.306
same,glycan array binding signal (z-score),[8],-0.317
same,glycan array binding signal (z-score),[9],-0.032
same,glycan array binding signal (z-score),[10],0.384
same,glycan array binding signal (z-score),[11],-0.335
same,glycan array binding signal (z-score),[12],-0.337
same,glycan array binding signal (z-score),[13],-0.224
same,glycan array binding signal (z-score),[14],-0.293
same,glycan array binding signal (z-score),[15],0.017
same,glycan array binding signal (z-score),[16],-0.071
same,glycan array binding signal (z-score),[17],-0.276
same,glycan array binding signal (z-score),[18],-0.322
same,glycan array binding signal (z-score),[19],0.678
same,glycan array binding signal (z-score),Fuc(a1-2)Gal(b1-4)Glc,-0.271
same,glycan array binding signal (z-score),Fuc(a1-2)Gal(b1-4)Glc6S,-0.195
same,glycan array binding signal (z-score),Fuc(a1-2)Gal(b1-4)GlcNAc,-0.215
same,glycan array binding signal (z-score),[20],-0.191
same,glycan array binding signal (z-score),[21],-0.3
same,glycan array binding signal (z-score),[22],-0.269
same,glycan array binding signal (z-score),[23],-0.214
same,glycan array binding signal (z-score),[24],-0.271
same,glycan array binding signal (z-score),[25],0.118
same,glycan array binding signal (z-score),[26],-0.193
same,glycan array binding signal (z-score),[27],0.751
same,glycan array binding signal (z-score),[28],-0.11
same,glycan array binding signal (z-score),[29],-0.356
same,glycan array binding signal (z-score),[30],0.356
same,glycan array binding signal (z-score),[31],-0.229
